From PubChem BioAssay AID651820 (National Center for Advancing Translational Sciences (NCATS), 2012)
Out of some 340,000 compounds screened, about 12,000 (3.5%) were called active. The inconclusive results got no clear call from the source; some entries with a clear call stand among them for comparison. Calls come from the whole dose curve; as a rule, active = well fitted inhibition curve with a large enough effect; inconclusive = small, poorly fitted or top-dose-only effect, or another doubt; inactive = no such curve, though single readings can be large or run the other way. Potencies of inconclusive entries are left out as doubtful fits.

assay: qHTS Assay for Inhibitors of Hepatitis C Virus (HCV); conditions: Huh7.5.1 HCVcc-Cre (HCVcc is cell-culture hepatitis C virus) infection, luciferase reporter, 44 h; activity change, negative = inhibition: at 41.8 µM (top of the series)
Procedure, shortened: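 Cells seeded at 1,000/well and cultured 4 h, then compounds added followed by HCVcc-Cre virus (~0.5 moi). After 44 h further culture, luciferase substrate was added, plates held 15 min at room temperature, and luminescence read for 15 sec.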
% is set by controls: 0 for no effect and ±100 for the full control effect; potency is the fitted concentration of half-maximal effect; tags give direction and shape of the fitted curve.

Row | SMILES | Potency | activity change, negative = inhibition
1 | COc1cc(/C=C(/NC(=O)c2ccccc2)C(=O)Nc2ccccc2)c([N+](=O)[O-])cc1OC | inconclusive [inhibitor, single point] | 
2 | Cc1ccc(N2CCN(S(=O)(=O)c3ccc4oc(=O)ccc4c3)CC2)cc1Cl | inactive | 
3 | CC(=O)NC(CC(=O)Nc1nc(C)cs1)c1ccccc1 (stereo not drawn) | inactive | 
4 | CCOc1ccc(CCNC(=O)c2cccc(S(=O)(=O)N3CCN(C(C)=O)CC3)c2)cc1OCC | inconclusive [inhibitor, full curve, poor fit] | 
5 | CCOc1ccc(Br)cc1C1=CC(=O)C[C@H](c2ccc(OC)cc2)C1 | inconclusive [inhibitor, partial curve] | 
6 | CCCCN(CC)C(=S)Nc1ccc2nc(N3CCN(C)CC3)cc(C)c2c1 | inconclusive [inhibitor, single point] | 
7 | Cc1noc(C)c1NC(=O)Nc1ccc2c(c1)C(=O)N([C@H](C)CO)C[C@H](C)[C@H](CN(C)C)O2 | inactive | 
8 | CCCCn1nc(C(=O)NCc2ccccc2CN2CCCC2)c2ccccc2c1=O | inconclusive [inhibitor, single point] | 
9 | CSc1ncc(/C=C2/C(=O)NC(=O)N(c3ccc(C)cc3)C2=O)cn1 | inactive | 
10 | COc1ccc(CNc2cccc(C)n2)c(O)c1 | inactive | 
11 | Cc1nnc(SCC(=O)Nc2cccc(S(=O)(=O)N(C)c3ccccc3)c2)s1 | active: 7.08 µM | 
12 | CC(=O)NCCn1c(SCC(=O)NCc2ccco2)nc2ccccc2c1=O | inactive | 
13 | O=S(=O)(NCCc1ccccc1)c1cccc2cccnc12 | inconclusive [inhibitor, single point] | 
14 | C/C(CCc1ccccc1)=N\NC(=O)COc1ccccc1C | inconclusive [inhibitor, single point] | 
15 | Cc1nc2c(C(=O)NCc3ccccc3Cl)c[nH]n2c(=O)c1Cl | inactive | 
16 | Nc1c(C(=O)Nc2ccccc2Cl)nnn1-c1ccc2c(c1)OCCO2 | inconclusive [inhibitor, partial curve] | 
17 | CSc1ccc(/C=N\Nc2nncn2N)cc1 | inactive | 
18 | CC(=O)OCC(=O)C1(O)CCC2C3CCC4=CC(=O)C=CC4(C)C3C(O)CC21C (stereo not drawn) | inactive | 
19 | CC(=O)n1cc([C@H]2C=C(C(=O)N3CCN(Cc4ccc5c(c4)OCO5)CC3)O[C@@H](OCc3ccc(CO)cc3)C2)c2ccccc21 | inconclusive [inhibitor, single point] | 
20 | CC(C)C(CCNC(=O)CN1C(=O)c2ccccc2C1=O)c1ccco1 (stereo not drawn) | inactive | 
21 | CCCc1ncc(CN2CCCC(C(=O)Nc3ccc(-c4cccc(OC)c4)cc3)C2)cn1 (stereo not drawn) | inconclusive [inhibitor, partial curve] | 
22 | COc1ccc2sc(-c3ccc(N(C)C)cc3)c(-c3ccc4cc[nH]c4c3)c2c1 | inconclusive [inhibitor, single point] | 
23 | C[C@H](O)[C@H]1CC[C@H]2[C@@H]3CCC4=CC(=O)CC[C@]4(C)[C@H]3CC[C@]12C |  | inactive: -14.2% [at 8.37 µM]
24 | O=S(=O)(c1cccc(-c2csc(N/N=C/c3ccco3)n2)c1)N1CCOCC1 | inconclusive [inhibitor, single point] | 
25 | COc1ccc(C(CC(=O)N2CCCC2)c2c(OC)cc(OC)c3ccc(=O)oc23)cc1 (stereo not drawn) | active: 2.82 µM | 

Row | SMILES | Potency | activity change, negative = inhibition
26 | Cc1cn2c(N)c(C=C3C=C(Cl)C(=O)C(Cl)=C3)c(=O)nc2s1 | inactive | 
27 | CCOc1ccc(-n2nc3c(SCCN4CCCC4)nnc(C)c3c2C)cc1 | active: 10 µM | 
28 | CCOC(=O)C(C)C1(O)c2ccccc2-c2ncccc21 (stereo not drawn) | inactive | 
29 | COc1cc2c(c(OC)c1OC)-c1ccc(SC)c(=O)cc1C(NC(=O)c1ccccc1)CC2 (stereo not drawn) | inactive | 
30 | CCC(C)/C=C/C1=CC2=C(Cl)C(=O)C3(C)OC(=O)C(C(=O)C(C)C(C)O)C3C2=CO1 (stereo not drawn) | inactive | 
31 | O=C(Nc1ccc(-n2cccn2)cc1)C1CCCCN1Cc1cccc2cccnc12 (stereo not drawn) | inconclusive [inhibitor, single point] | 
32 | Cc1ccc(-c2nnc(N3CCN(C(=O)COc4cccc(C)c4)CC3)c3ccccc23)cc1 | inconclusive [inhibitor, partial curve] | 
33 | Cc1csc(NC(=O)CNS(=O)(=O)c2cccs2)n1 | inconclusive [inhibitor, single point] | 
34 | CCc1ccc(NC(=O)c2cnc(N3CCN(c4ccccn4)CC3)c3ccccc23)cc1 | active: 4.47 µM | 
35 | Cc1[nH]n(-c2ccccc2)c(=O)c1/C=N/NC(=O)c1ccc(O)cc1O | inactive | 
36 | O=C(CN1CCCCC1)NC(=O)Nc1ccccc1F |  | inconclusive: -103% [inhibitor]
37 | O=C(NC1CCN(Cc2ccccc2)CC1)c1cccc(Br)c1 | inactive | 
38 | COc1cc(OC)c2c(-c3cccc(-c4cccc(C)c4)c3)cc(=O)oc2c1 | active: 4.47 µM | 
39 | O=C(CN1CCN(c2ccccn2)CC1)Nc1cccc(S(=O)(=O)N2CCCC2)c1 | inconclusive [inhibitor, single point] | 
40 | CCC(=O)Nc1ccccc1C(=O)OCc1ccc(C(=O)c2ccccc2)cc1 | inconclusive [inhibitor, single point] | 
41 | CCN1CCc2c(sc(NC(=S)NC(=O)c3ccco3)c2C(N)=O)C1 | inactive | 
42 | O=C(c1cccc(C(F)(F)F)c1)c1c[nH]c(C(=O)NCC2CCCO2)c1 (stereo not drawn) | inconclusive [inhibitor, partial curve, poor fit] | 
43 | CCOC(=O)C1CCN(C(=O)c2cc(C(C)(C)C)nn2Cc2ccccc2)CC1 | inactive | 
44 | COc1ccc(NC(=O)C2CCCN(S(=O)(=O)c3cccs3)C2)cc1OC (stereo not drawn) | inconclusive [inhibitor, single point] | 
45 | CCc1nc2oc3ccccc3c(=O)c2c(=O)n1-c1ccc(C)cc1 | inactive | 
46 | Oc1ccccc1/C=N/NC(=S)NC1CC2C=CC1C2 (stereo not drawn) | inactive | 
47 | CC1(c2ccc(OC(F)F)cc2)NC(=O)N(CC(=O)Nc2ccc(Cl)cc2F)C1=O (stereo not drawn) | inconclusive [inhibitor, partial curve, poor fit] | 
48 | O=C(NCc1n[nH]c(=S)n1-c1cccc(C(F)(F)F)c1)c1ccc(S(=O)(=O)N2CCCCC2)cc1 | inactive | 
49 | O=C(Cc1ccc(S(=O)(=O)N2CCOCC2)s1)NCCC(c1ccccc1)c1ccccc1 | inconclusive [inhibitor, full curve, poor fit] | 
50 | CCN(CC)S(=O)(=O)c1ccc(C(=O)NCc2ccc3c(c2)cc(C)n3C)cc1 | inconclusive [inhibitor, single point] | 

Row | SMILES | Potency | activity change, negative = inhibition
51 | CN(C)c1ccc(/C=C(\NC(=O)c2ccccc2)C(=O)NCCCN2CCOCC2)cc1 | inactive | 
52 | Cc1sc2c(c1C)C(c1cccs1)=NCC(=O)N2CC(=O)NCc1cccs1 | inconclusive [inhibitor, single point] | 
53 | Cc1ccccc1NC(=O)Cc1nc(COC(=O)CSc2ccccc2)cs1 | inactive | 
54 | COc1cc(C(=O)Nc2ccc3c(c2)Cc2ccccc2-3)cc(OC)c1OC | inconclusive [inhibitor, partial curve] | 
55 | Cc1c(C(=O)N2CCN(c3ccc([N+](=O)[O-])cc3)CC2)oc2ccccc12 | inconclusive [inhibitor, single point] | 
56 | Cc1ccc(-c2nc(CSCC(=O)N3CCN(C(=O)c4ccco4)CC3)c(C)o2)cc1 | inconclusive [inhibitor, single point] | 
57 | O=C(NCC(c1cccnc1)N1CCN(c2ccccc2F)CC1)OCc1ccccc1 (stereo not drawn) | inconclusive [inhibitor, single point] | 
58 | Cn1nc(OCC(=O)O)cc1C(F)(F)F | inactive | 
59 | O=S(=O)(c1ccc(NC(=S)NN=C(Cc2ccccc2)Cc2ccccc2)cc1)N1CCOCC1 | active: 10 µM | 
60 | O=C(CCc1ccccc1)NNC(=O)COc1ccc(Br)cc1 | active: 11.2 µM | 
61 | C=C(C)CSc1nc2ncccc2[nH]1 | inactive | 
62 | COc1ccc(CCN(Cc2cccs2)S(=O)(=O)c2ccc(S(=O)(=O)N(C)C3CCCCC3)cc2)cc1OC | inconclusive [inhibitor, partial curve] | 
63 | COc1cccc(-c2nnc(SCC(=O)OC(C)C)n2Cc2ccco2)c1 | inactive | 
64 | O=C(COc1ccc(Cl)cc1)Nc1ccccc1CO | inconclusive [inhibitor, single point] | 
65 | CN(c1ccccc1)S(=O)(=O)c1nnc(NC(=O)c2ccco2)s1 | inactive | 
66 | COc1ccccc1N1CCN(Cc2cc(C)c(C)cc2O)CC1 | inconclusive [inhibitor, single point] | 
67 | COc1ccccc1-c1ccc(Nc2cccc(C(C)=O)c2)nn1 | active: 7.94 µM | 
68 | O=C(CCCc1nc(-c2ccccc2)no1)NCc1cccnc1 | inconclusive [inhibitor, single point] | 
69 | COc1ccc(NS(=O)(=O)c2cc(N/C(=N\S(=O)(=O)c3ccccc3)c3ccc(F)cc3)ccc2Cl)cc1 | inconclusive [inhibitor, single point] | 
70 | COc1ccc2sc(NC(C)=O)nc2c1 | inactive | 
71 | O=[N+]([O-])c1cc(-c2cccnc2)n[nH]1 | inconclusive [inhibitor, partial curve] | 
72 | O=c1[nH]cnc2nc(-c3ccc(N(CCCl)CCCl)cc3)[nH]c12 | inconclusive [inhibitor, partial curve] | 
73 | CCOC(=O)C(CCCCCOc1ccc([N+](=O)[O-])cc1)C(=O)OCC | inconclusive [inhibitor, full curve, poor fit] | 
